Assay results as given in PubChem BioAssay AID2100 (National Center for Advancing Translational Sciences (NCATS), 2009).
Values joined by “and” are separate entries in the source; they are usually repeats but may differ in a detail not shown here. Identical values can stand only once. In all, about 300,000 compounds went through this assay and about 1,200 (0.4%) were called active. Inconclusive means that the source gave no clear call. Such entries were picked first, then a sample of the others. Calls follow the shape of the dose curve; as a rule, active = well fitted inhibition curve with a large enough effect; inconclusive = small, poorly fitted or top-dose-only effect, or another doubt; inactive = no such curve, though single readings can be large or run the other way. Where the call is inconclusive, the potency comes from a doubtful curve fit.

These compounds were tested against Lysosomal alpha-glucosidase (Homo sapiens) (UniProt P10253) (assay: qHTS Assay for Inhibitors and Activators of Human alpha-Glucosidase Cleavage of Glycogen). Settings: recombinant GAA, glycogen substrate, Amplex Red glucose oxidase fluorescence; activity change, negative = inhibition: at 76.4 µM (top of the series) unless noted.
Summary of the method: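 Recombinant human alpha-glucosidase (4 nM final) hydrolysed bovine liver glycogen (30 ug) for 40 min at 37 C in pH 5.0 citrate/phosphate with 0.01% Tween-20. Released glucose detected by glucose oxidase/Amplex Red, Ex 573/Em 610 nm. Compounds up to 77 uM; AC50 from Hill fits.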
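For activity change, negative = inhibition in this document: 0% = full enzyme reaction and -100% = no-enzyme basal signal.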
Potency is read from the fitted curve at half-maximal effect.

Structure (SMILES) | Potency | activity change, negative = inhibition
O=C(Nc1ccc(F)cc1)Oc1ccccc1N1CCOCC1 | inconclusive: 50.1 µM [inhibitor, single point] | 
Cc1ccc(NS(=O)(=O)c2ccc3c(c2)n(C)c(=O)n3C)cc1C | inactive and inconclusive: 50.1 µM [inhibitor, single point] | 
CCCC(=O)C1=C(c2ccccc2)C(C#N)(C#N)C(C#N)=C1N | inconclusive: 4.43 µM [inhibitor, full curve] | 
CCOc1ccc(Nc2oc(-c3ccco3)nc2C#N)cc1 | active: 35.5 µM | 
O=S(=O)(NCCO)c1cccc2cccnc12 | inconclusive: 7.94 µM [inhibitor, partial curve] | 
Cc1c(N=Cc2ccco2)c(=O)n(-c2ccccc2)n1C | active: 10 µM | 
Cc1ccc(/C=N/Nc2nncn2N)cc1 | inconclusive: 12.6 µM [inhibitor, partial curve] | 
COc1cccc(C(=O)NCc2ccc3[nH]c(C)cc3c2)c1 | inconclusive: 22.2 µM [activator, single point] | 
COc1cccc(CNn2cnnc2)c1O | inconclusive: 17.6 µM [inhibitor, single point] | 
Nc1nc(N2CCN(c3ccccc3)CC2)n[nH]1 | active: 10 µM | 
COc1ccc(-n2nc(C(=O)N3CCCC(C)C3)c3c4ccccc4n(C)c3c2=O)cc1 (configuration not stated) | inconclusive: 11.2 µM [inhibitor, single point] | 
C(=N\Nc1nc2ccccc2[nH]1)/C1CCCCC1 | inconclusive: 3.52 µM [inhibitor, full curve] | 
O=C(O)/C=C/C(=O)c1c(-c2ccccc2)[nH]c2ccccc12 | inactive | 
O=C(Nc1cccc(-c2csc(Nc3ccccc3)n2)c1)c1ccccc1 | inconclusive: 39.5 µM [inhibitor, single point] | 
O=C(CCCn1c(=O)c2ccccc2n(CC(=O)Nc2cccc(C(F)(F)F)c2)c1=O)NCc1ccc2c(c1)OCO2 | inconclusive: 28.2 µM [inhibitor, partial curve] | 
COC(=O)CC1=NN(c2ccc(OC)cc2)C(=O)C1 | active: 28.2 µM | 
CC1=NN(c2ccc(C)c(C)c2)C(=O)C1C(c1cccc(O)c1)C1C(=O)N(c2ccc(C)c(C)c2)N=C1C (configuration not stated) | inconclusive: 28 µM [inhibitor, single point] | 
Cc1cc(N2CCN(C)CC2)nc2ccc(NC(=S)N3CCCCCC3)cc12 | inconclusive: 15.8 µM [inhibitor, partial curve] | 
COC(=O)c1ccc(CSc2ncnc3ccccc23)o1 | inconclusive: 8.91 µM [inhibitor, full curve, poor fit] | 
COc1ccc2c(c1)c(C(=O)N/N=C/c1ccc(Br)cc1)c(C)n2C | inactive | 
CCC1=NC(c2ccc(Br)cc2)N(O)C1(C)C (configuration not stated) | inconclusive: 31.6 µM [inhibitor, single point] | 
O=C(Nc1cccc(Cl)c1)N(CCN1CCOCC1)Cc1cccc(Cl)c1 |  | inconclusive: 3.86% [activator]
CCOc1cc(C2NC(=O)NC2=O)ccc1O (configuration not stated) | inconclusive: 44.7 µM [inhibitor, single point] | 
Cc1ccc(NC(=O)CNC(=O)Cn2c(C)cc3ccccc3c2=O)cc1F | inconclusive: 11.2 µM [inhibitor, partial curve] | 

Structure (SMILES) | Potency | activity change, negative = inhibition
COc1ccc(/C=N/N=C(\N)c2nonc2N)cc1 | inconclusive: 28.2 µM [inhibitor, single point] | 
C=CCn1c(SCC(=O)c2ccc(O)c(O)c2)nnc1-c1ccccc1OC | active: 17.6 µM | 
O=c1c(C(c2ccc(Cl)cc2)c2c(O)nc3n(c2=O)CCS3)c(O)nc2n1CCS2 | inconclusive: 7.94 µM [inhibitor, full curve] | 
Cc1cc(C)n2c(Nc3ccccc3)c(-c3ccccc3)nc2n1 | inconclusive: 6.31 µM [inhibitor, full curve] | 
N#CCC(=O)N/N=C/c1ccc(Cl)cc1 | inactive | 
N#CC1(C#N)COC23CCCCC2C1(C#N)C(=N)O3 (configuration not stated) | inactive | 
COc1ccc(CN2CCN(C(=O)Cn3c(=O)oc4cc(Cl)ccc43)CC2)c(OC)c1OC | inactive | 
COc1ccc(NC(=S)Nc2ncccc2C)cc1OC | inconclusive: 25.1 µM [inhibitor, partial curve] | 
N#CC1=C2SCN(Cc3ccco3)CN2C(=O)CC1c1ccc(Cl)cc1 (configuration not stated) | inactive | 
CSc1ccccc1C(=O)Nc1nccs1 |  | inconclusive: 23.8% [activator]
S=C1NCCc2ccccc2C1c1ccccc1Cl (configuration not stated) | inconclusive: 17.8 µM [inhibitor, partial curve] | 
COC(=O)c1c(NC(=S)Nc2ccc(F)cc2[N+](=O)[O-])sc2c1CCCCC2 | inconclusive: 3.98 µM [inhibitor, full curve] | 
Oc1ccc2c(c1)C1CCCC1(N1CCOCC1)O2 (configuration not stated) | inconclusive: 4.47 µM [inhibitor, full curve] | 
COc1ccc(Nc2c3c(nc4ccc(NC(=O)/C=C/c5cccc(OC)c5OC)cc24)CCCC3)cc1OC | inconclusive: 14.1 µM [inhibitor, partial curve] | 
NC(=O)c1ncn([C@@H]2O[C@H](CO)[C@@H](O)[C@H]2O)c1O | inconclusive: 8.84 µM [inhibitor, partial curve] | 
CN(C)c1ccc(C(C#N)c2ccc(Cl)cc2)nn1 (configuration not stated) | inconclusive: 50.1 µM [inhibitor, single point] | 
Cc1ccccc1OCC(=O)Nc1cc(S(=O)(=O)N2CCCCC2)ccc1N1CCN(C)CC1 | inconclusive: 22.4 µM [inhibitor, partial curve] | 
Cc1ccc(Nc2cc(C)c3c(O)cccc3n2)cc1C | inconclusive: 7.08 µM [inhibitor, full curve] | 
CCCCOc1ccc(N=Cc2ccc[nH]2)cc1 | inconclusive: 35.5 µM [inhibitor, partial curve] | 
COc1ccc2c(c1)C(=NNc1ccc(C(=O)O)cc1)c1cc(OC)ccc1-2 | inconclusive: 35.5 µM [inhibitor, single point] | 
O=C(NNC1CC(=O)N(c2ccccc2)C1=O)c1cccnc1 (configuration not stated) | inconclusive: 28.2 µM [inhibitor, partial curve] | 
COc1ccc(/C=N/Nc2nc(-c3cccnc3)nc3ccccc23)c(OC)c1 | inconclusive: 8.91 µM [inhibitor, partial curve] | 
CC1(C)Cc2c(c(-c3ccccc3)nc3[nH][nH]c(=O)c23)CO1 | active: 5.01 µM | 
c1ccc(-c2cc(N3CCCCCC3)n[nH]2)cc1 | inconclusive: 11.1 µM [inhibitor, partial curve] | 

Structure (SMILES) | Potency | activity change, negative = inhibition
CC(C)(C)CN1CCNC(=O)C1CC(=O)NCCN1CCCc2ccccc21 (configuration not stated) | inconclusive: 10 µM [inhibitor, full curve] | 
c1ccc(-c2nc3nonc3nc2-c2ccccc2)cc1 | inactive | 
O=C(CCC(=O)N1CCSc2ccccc21)NCc1ccccc1Cl | inactive | 
C/C(=N\Nc1ccc(C(=O)O)cc1)c1ccc(S(=O)(=O)NCc2ccco2)cc1 | inconclusive: 35.5 µM [inhibitor, single point] | 
C=CCNCC(=O)Nc1sc2c(c1C(=O)Nc1ccc(OC)cc1OC)CCC2 | inconclusive: 10 µM [inhibitor, full curve, poor fit] | 
CCCN1C(=O)c2[nH]nc(-c3cccc(OC)c3)c2C1c1ccccn1 (configuration not stated) | inactive | 
O=C(COc1ccc(F)cc1)NN1C(=O)CSC1=S | inconclusive: 35.5 µM [inhibitor, single point] | 
Cc1oc2c(O)c(O)ccc2c(=O)c1-c1ccc(Cl)cc1 | active: 7.08 µM | 
COc1cccc(NC(CNS(=O)(=O)c2ccc(Cl)cc2)c2ccccc2)c1 (configuration not stated) | inconclusive: 8.91 µM [inhibitor, single point] | 
CCn1c(CCNC(=O)c2ccc(Cl)cc2Cl)n[nH]c1=S | inconclusive: 4.97 µM [inhibitor, full curve, poor fit] | 
COc1cc(CN2CCC(C(=O)N3CCCC(C)C3)CC2)cc(OC)c1O (configuration not stated) | inconclusive: 8.91 µM [inhibitor, full curve] | 
COc1ccc(C(C[N+](=O)[O-])c2c(C)[nH]n(-c3ccccc3)c2=O)cc1 (configuration not stated) | inconclusive: 39.8 µM [inhibitor, single point] | 
CC(=O)c1cccc(Nc2nc(-c3sc(N)nc3C)cs2)c1 | inconclusive: 50.1 µM [inhibitor, single point] | 
CSc1ccc(S(=O)(=O)N2CCN(Cc3ccc4c(c3)OCO4)CC2)cc1 | inactive | 
O=C(NNS(=O)(=O)c1ccc(F)cc1)c1ccccc1O | inconclusive: 7.94 µM [inhibitor, single point] | 
O=[N+]([O-])c1ccc(-c2cn3nc(-c4ccccc4)c(-c4ccccc4)nc3n2)cc1 | inactive | 
COc1ccc(Cl)cc1NC(=S)N(CCCN1CCOCC1)Cc1cn(C)c2ccccc12 | inactive | 
O=C(CSc1nnnn1-c1ccc(O)cc1)Nc1cccc(S(=O)(=O)N2CCCC2)c1 | inactive | 
O=c1[nH]c(S)c(/C=C2\C=Nc3ccccc32)s1 | inactive | 
CSc1nn(Cc2cccc(F)c2)c(N(C(C)=O)C(C)=O)c1S(=O)(=O)c1ccccc1 | inactive | 
COc1ccc(N2C(=O)CNC2=S)cc1 | inconclusive: 15.7 µM [inhibitor, single point] | 
COc1cccc(C2C(C(=O)Nc3cccnc3)=C(C)Nc3nc(SCc4ccccc4)nn32)c1 (configuration not stated) | inactive | 
O=C(NCc1ccco1)c1ccc(NS(=O)(=O)c2cccc([N+](=O)[O-])c2)cc1 | inconclusive: 20 µM [activator, partial curve] | 
Cc1ccc(S(=O)(=O)Nc2cc(C)c(O)c(S(=O)(=O)c3ccc(C)cc3)c2)cc1 | active: 11.2 µM | 
